Experimental data published in PubChem BioAssay AID624417 (National Center for Advancing Translational Sciences (NCATS), 2012).
In all, about 410,000 compounds went through this assay and about 6,400 (1.6%) were called active. Inconclusive results, whose numbers are uncertain, are shown with a selection of clear calls. The call rests on the fitted dose curve; in most records, active means well fitted inhibition curve with a large enough effect; inconclusive means small, poorly fitted or top-dose-only effect; inactive means no such curve, though single readings can be large or run the other way. Potencies of inconclusive entries are doubtful fits and often do not repeat.

What follows are compounds tested against Glucagon-like peptide 1 receptor (Homo sapiens) (UniProt P43220) (assay: qHTS of GLP-1 Receptor Inverse Agonists (Inhibition Mode)). Details: HEK293 GLP-1R CRE-luciferase, luminescence, 24 h, GLP-1R form is constitutively active; series mostly up to 38.3 µM.
Outline: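 Using stably transfected HEK293 (constitutively active GLP-1R, cAMP-luciferase reporter), compounds were incubated 24 hr and luciferase measured by luminescence.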
Further: nearly all actives have a fitted effect of over 55% in size.
Potency means the concentration at half of the fitted maximal effect; tags describe the fitted curve by direction and shape.

Chain of UniProt P43220 (P43220 whole entry, looked up): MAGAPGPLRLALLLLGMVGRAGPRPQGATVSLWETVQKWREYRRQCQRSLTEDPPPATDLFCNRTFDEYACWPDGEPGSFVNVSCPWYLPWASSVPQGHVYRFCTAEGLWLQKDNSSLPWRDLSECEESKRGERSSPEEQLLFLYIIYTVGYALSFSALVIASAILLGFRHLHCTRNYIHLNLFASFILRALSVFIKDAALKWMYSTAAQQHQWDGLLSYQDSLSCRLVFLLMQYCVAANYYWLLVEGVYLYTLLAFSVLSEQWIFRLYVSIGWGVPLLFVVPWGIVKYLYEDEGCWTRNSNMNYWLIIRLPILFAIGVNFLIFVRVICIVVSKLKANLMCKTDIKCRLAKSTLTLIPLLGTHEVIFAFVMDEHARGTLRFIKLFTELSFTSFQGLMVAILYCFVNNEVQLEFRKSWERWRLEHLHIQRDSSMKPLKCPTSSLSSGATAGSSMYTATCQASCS

Potency, inactive:
Cc1onc(-c2ccccc2)c1C(=O)Nc1nnc(-c2ccncc2)s1
CCN(CC)C(=O)C(C)N1c2cccc3cccc(c23)S1(=O)=O (centres undefined)
COc1ccc(S(=O)(=O)N2CCCCC2C(=O)O)cc1OC (centres undefined)
COc1ccc(C(=O)NC2=NCCS2)cc1
C[C@]12c3[nH]c4ccccc4c3CCN1C(=O)C(CC(=O)NCc1ccco1)C[C@@H]2C(=O)N1CCCCC1 (some centres undefined)
O=C(COC(=O)Cn1cnc2ccccc2c1=O)NCc1ccccc1
Cc1cccc(N(C)c2nc3ccccc3c3nnc(C)n23)c1
COC(=O)Cn1c(=O)c2cccn2c2ccc(F)cc21
Cc1ccc(N(C(=O)c2ccc(S(=O)(=O)N3CCCC3)cc2)C2C=CS(=O)(=O)C2)cc1 (centres undefined)
CN1CCN(C2=C(Cl)C(=O)N(Cc3ccccc3)C2=O)CC1
Cc1ccccc1N1CCN(S(=O)(=O)c2nnc(NC(=O)c3ccc(C(C)C)cc3)s2)CC1
COc1ccc(C(=O)NCCS(=O)(=O)NC2CCCC2)cc1
O=[N+]([O-])c1ccc(COc2cccc(CNc3ccc(F)cc3)c2)cc1
C=CCN=c1scc(C)n1/N=C/c1ccc(O)c(O)c1

Potency, inconclusive:
COc1ccc(S(=O)(=O)N2CCN(c3cccc(C)c3C)CC2)cc1 12.6 µM [inhibitor, single point]
C=CCn1c(SCc2ccc(Cl)c(Cl)c2)nnc1C(CO)NC(=O)c1ccc(OC)cc1 (centres undefined) 12.6 µM [inhibitor, partial curve, poor fit]
CN(C)c1cccc(NC(=O)C2Cc3c(-c4ccc(Cl)cc4)ccnc3O2)c1 (centres undefined) 28.2 µM [inhibitor, single point]
CC1CN(S(=O)(=O)c2cccc(C(=O)OCCOc3ccccc3)c2)CC(C)O1 (centres undefined) 28.2 µM [inhibitor, single point]
CCCCn1nnnc1C(c1cc2ccccc2o1)N1CCCN(C(=O)OC(C)(C)C)CC1 (centres undefined) 28.2 µM [inhibitor, single point]
Cc1ccc(NC2CCCN(C(=O)CSc3ccncc3)C2)cc1C (centres undefined) 3.16 µM [inhibitor, full curve]
Cn1cc(C(=O)c2ccc(Cl)cc2Cl)cc1C(=O)N/N=C(\N)COc1cccc(C(F)(F)F)c1 11.2 µM [inhibitor, single point]
COc1ccccc1OC(C)C(=O)Nc1cccc(-c2nc3ccccc3s2)c1 (centres undefined) 28.2 µM [inhibitor, single point]
CC(C)CCNC(=O)c1cc2c(s1)-c1ccccc1S(=O)(=O)C2 10 µM [inhibitor, partial curve]
COC(=O)c1cccc(CSc2nc3ccccc3[nH]2)c1 31.6 µM [inhibitor, single point]
COc1ccc(NC(=O)c2scc(S(=O)(=O)C(C)C)c2N)cc1 28.2 µM [inhibitor, single point]
c1ccc(COc2ccc(OCCCn3cncn3)cc2)cc1 10 µM [inhibitor, partial curve, poor fit]
Cc1ccc(-c2ccc(/C=N\NC(=O)C3C(=O)NCC3c3ccccc3)o2)cc1Cl (centres undefined) 28.2 µM [inhibitor, single point]
CCCCCn1c(NCc2ccc(OC)cc2)nc2ccccc21 10 µM [inhibitor, partial curve, poor fit]
COC(=O)[C@]12CCCCC=C1N(Cc1cccc3ccccc13)C(=O)[C@H](CC(=O)N1CCCC1)C2 31.6 µM [inhibitor, single point]
Cc1[nH]c2ccc(C(=O)N3CCN(c4ccccc4Cl)CC3)cc2c1C 10 µM [inhibitor, partial curve, poor fit]
CCCCOc1ccc(-c2cn3ccccc3n2)cc1[N+](=O)[O-] 12.6 µM [inhibitor, single point]
CCOc1ccc(C(=O)Cn2c(=O)n3nc(CCn4nc(C)cc4C)nc3c3cc(OC)c(OC)cc32)cc1 0.794 µM [inhibitor, full curve, poor fit]
CCOC(=O)c1sc(NC(=S)NC(=O)C2CCCC2)cc1C 12.6 µM [inhibitor, partial curve, poor fit]
CCOC(=O)C1=CN(Cc2ccc(Br)cc2)S(=O)(=O)NC1C (centres undefined) 28.2 µM [inhibitor, single point]
COC(=O)c1ccc(N=NNc2ccccc2)cc1 8.91 µM [inhibitor, partial curve, poor fit]
Clc1ccc(OCc2nc(-c3ccccn3)no2)c(Br)c1 7.94 µM [inhibitor, partial curve, poor fit]
O=C(Cc1ccc(-n2cccc2)cc1)NCc1ccccc1Cl 2.24 µM [inhibitor, partial curve, poor fit]
O=C(CN1C(=O)S/C(=C\c2ccccc2)C1=O)NCCCn1ccnc1 2.51 µM [inhibitor, partial curve, poor fit]
Cc1ccc(C(=O)Nc2ccc3c(c2)OCO3)cc1S(=O)(=O)N1CCCC1 10 µM [inhibitor, single point]
Cc1cc(Cl)ccc1OCC(=O)N[C@@H](Cc1ccccc1)c1nc2ccccc2[nH]1 31.6 µM [inhibitor, single point]
O=C(CN1CCCCCC1)Nc1ccccc1Oc1ccccc1 2 µM [inhibitor, full curve, poor fit]
COc1ccc(NS(=O)(=O)c2ccc(Cl)c(N)c2)cc1Br 31.6 µM [inhibitor, partial curve, poor fit]
COc1ccccc1CNC(=O)C(=O)NCC(c1cccs1)S(=O)(=O)c1ccccc1 (centres undefined) 11.2 µM [inhibitor, single point]

Potency, active:
COc1cc(NC(=O)c2cc(C3CC3)nc3c2c(C)nn3-c2ccccc2)cc(OC)c1 10 µM
